Binding signal data for 22 molecules are collected here from publication PMC12136788.

The other results are listed elsewhere or left out.

To fix the notation:
B1: chr12:55961440:55961441:-_ENSMUSG00000062929_ENSMUST00000078124|mus_hu|FALSE|FALSE (ssRNA)
RNA: GGGAGUUCUACAGUCCGACGAUCGAUAUUCAAAAUAUCUUUAGUGUUGCAGGACUCACAUGGUAAACAUAAAACUCCUACACUUAUUCAGUAGUGUACACUCAAUGGAAAACAAAAAGGCAUUAAUAACAGCUAUUUCUUUUACAACAGAGGAUUGAGCAUCA
B2: chr20:57566945:57566946:+_ENSG00000101158_ENST00000344018|hu_hu|FALSE|FALSE (ssRNA)
RNA: GGGAGUUCUACAGUCCGACGAUCGUGAACGGUUUCGACAGCUUUUGACGUUGACUUCAGCUCAUCUUUAUUGAUGCUCACUCGCUUGUUCUUCUUCCAGGUCUCAACCACGCUUGCUGCGUACGCCAAGAUGUGGAUGUAUUUCAACAGAGGAUUGAGCAUCA
B3: chr11:119170673:119170674:+_ENSG00000110395_ENST00000264033|hu_hu|motif|central (ssRNA)
RNA: GGGAGUUCUACAGUCCGACGAUCGUGGGAACUGAAGGACACCUUCAAAUGCACUCAAGACCCAUAAAAUAAUAAAACAUACGGGCUGCUCCAUUUUCAUUUCACCACUUUGAAAUCUUGGAACCACUGAUGUGAUAUCCCACACAACAGAGGAUUGAGCAUCA
B4: chr19:53710959:53710960:+_ENSMUSG00000024974_ENSMUST00000025930|mus_hu|FALSE|FALSE (ssRNA)
RNA: GGGAGUUCUACAGUCCGACGAUCACGAAUCUCAUCAUUCAGUGCAUCUACUCUCUUCUGAUCUUCCAAACUCAGUUGAGAAAGCAAAUCAGUUCCCAGUUCUGCUUUCAAUGACUCUCUGGUAGACUCCAUAGCAUGCAAGCUCAACAGAGGAUUGAGCAUCA
B5: chr11:68836070:68836071:+_ENSMUSG00000020898_ENSMUST00000116359|mus_mus|FALSE|FALSE (ssRNA)
RNA: GGGAGUUCUACAGUCCGACGAUCCCUCACAUACAGGCUUCCACUCCUACAUUCUUGUUCCGAAUCUCCCAAUAGGUCUACUAGUGUCCCUAAAAGUAUCAGCUGCUCCCGGGGCAGGACGCCGUCCCCCGGCCGGCCUCCGCGCAACAGAGGAUUGAGCAUCA
B6: 32611910_32612235_191_CDS_ENSG00000144635_ENST00000273130|human|control|control (ssRNA)
RNA: GGGAGUUCUACAGUCCGACGAUCCCAAAGGUUCUGCCCGUCCUCGUCGUCGCCUGCCGCGGCGCCACCGUUGCCCGACGCUAUCUCGUUGCCCAAGGGGCCGCCAGUGUAAGUCGAGGAUAAUCCCGGCGGAGAAGAACCGAACAACAGAGGAUUGAGCAUCA
B7: 32637644_32637764_2913_3pUTR_ENSG00000025800_ENST00000373625|human|control|control (ssRNA)
RNA: GGGAGUUCUACAGUCCGACGAUCAUCUCUUUUUGGUCUUCCUCACAGUAUCCUACUUACCGAAAUGACAGACAGUUCUUCCUCUUGAGACCAAUUAAGAUUGACCUACCUAAUAUAUAGAAUAUAAAAAAAUACAGAACUUUUCAACAGAGGAUUGAGCAUCA
B8: 48026265_48026385_864_CDS_ENSG00000116062_ENST00000540021|human|control|control (ssRNA)
RNA: GGGAGUUCUACAGUCCGACGAUCAAAGUUCUGAGACUUAAUCUGCCACCACUUCCUCAUCCCAGGAGUACAAGAAUUGAGGAAAUCCUCAGGCACAUAGAGUGUAGAUGCAUCAAAAUCGGGGUGAUCAGGCCUCCUCCUGUGCAACAGAGGAUUGAGCAUCA
B9: chr15:41988372:41988373:+_ENSG00000174197_ENST00000570161|hu_hu|motif|central (ssRNA)
RNA: GGGAGUUCUACAGUCCGACGAUCUGUCUCUUCCUGUUUCACAGUGACCCCUUCUGGGCACUCACCAAGUUCGUAGUCAUAAUCAUCGGGAGGUUCCUCUUUAAUAACAACAUUGAAGCUUCCGUUCUGGUCUAACGGUGAGGCCAACAGAGGAUUGAGCAUCA
B10: chr5:145543945:145543946:-_ENSG00000133706_ENST00000545646|hu_hu|hu_hu_hu_mus_True|48_78 (ssRNA)
RNA: GGGAGUUCUACAGUCCGACGAUCCUGAACGGCCAGUGGUGGGAAAUAAUCAAGCCAAUGUUCUGCUUCAGAAAACUUCACUAUGUCUUCAUCAGACAGCCCAAGGGAUUUCAUAAUGUCCCACUGGUACUUAGAAGAUCCUGCCAACAGAGGAUUGAGCAUCA
B11: 153533148_153533268_1283_CDS_ENSG00000196504_ENST00000410080|human|control|control (ssRNA)
RNA: GGGAGUUCUACAGUCCGACGAUCGGCUGCAGCUGCUGCUGCUGCUGCCGCUGCUGCUGCUGCAACAACAGCAGCUGCUGCUUCGGCAGCAGCCAUGGUGCUCAUUGUGGUCGGAAUUUCUGUUGUAGGGACUGGGGCUGUUGACAACAGAGGAUUGAGCAUCA
B12: chrX:71549400:71549401:+_ENSMUSG00000019087_ENSMUST00000019231|mus_hu|mus_mus_mus_hu_False|58_68 (ssRNA)
RNA: GGGAGUUCUACAGUCCGACGAUCGCAGUAGGAAGAGGGAAGCUCUUCAGUCCAGUGCGCUGCAGGGAGAAACAUGACAACCUAGACCACCGUCCCACCCUCAACCCCCCCACUGGCACAGGGUCACACAAUCUGGGUCAAAGACAACAGAGGAUUGAGCAUCA
B13: chr12:54126753:54126754:+_ENSMUSG00000061603_ENSMUST00000095737|mus_mus|FALSE|FALSE (ssRNA)
RNA: GGGAGUUCUACAGUCCGACGAUCCUGCUCCUCUGACAUCAUCAGGUCGUGGCUGUCCAUCACAAGGGACUCCAUGUCAAUCAGCCAAUCCCAGAGCUCCUGAUAUUCUGAAUCAAAGUCCAGAAGCCCAUUGCUUCCCACCGACAACAGAGGAUUGAGCAUCA
B14: chr7:54825262:54825263:-_ENSG00000132432_ENST00000352861|hu_hu|hu_hu_hu_mus_False|68_68 (ssRNA)
RNA: GGGAGUUCUACAGUCCGACGAUCCUGCCGGCUGGGCUCCACAAACUGCAUUACCUGAUCCAUGUUUUACCCAACCGGGAUUGAGAGCGUAGAGACACGUAGCUCAGGAGAGAACCGAGCCCAACGGAACCGGAAGCUGGCAACCAACAGAGGAUUGAGCAUCA
B15: 58102184_58102304_1280_3pUTR_ENSG00000171649_ENST00000597850|human|control|control (ssRNA)
RNA: GGGAGUUCUACAGUCCGACGAUCUCCAGUGUGAAUUCUUCGGUGUUGAUUAAGAAUGGCACUUUGACUAAAGGAAUUCCCACAUUCACCACACUUAUAAGGCCUUUCUCCAGUGUGAACUCUUUGGUGUUUAACAAGGGUGGCCAACAGAGGAUUGAGCAUCA
B16: chr19:47151266:47151267:-_ENSG00000197380_ENST00000391916|hu_mus|motif|central (ssRNA)
RNA: GGGAGUUCUACAGUCCGACGAUCACUCUGUAGGCAUAACCUGAGUCAGACAGUCUCUGACUUGGGGGCCCCAGGGGGUAUCCGGAGGGUCCAGGGACAUGGAGGGGGCACUUUGUGAAUGAGAAGGGGACCCUAUCUGGGCAACAACAGAGGAUUGAGCAUCA
B17: chr10:33214929:33214930:-_ENSG00000150093_ENST00000302278|hu_hu|hu_hu_hu_mus_True|8_38 (ssRNA)
RNA: GGGAGUUCUACAGUCCGACGAUCAACAAGUUCAUUGAAAAACUCUCCUCUGUCAGUAAGACUAAGCACAUUUUUGUAGCUAAAUGGGCUGGUGCAGUUCUGUUCACUUGUACAAGGAUUUCUUAGCUUAGCUGGUGUUGUGCUCAACAGAGGAUUGAGCAUCA
B18: chr14:78183846:78183847:+_ENSG00000119705_ENST00000557342|hu_hu|hu_hu_hu_mus_False|28_68 (ssRNA)
RNA: GGGAGUUCUACAGUCCGACGAUCUCUCAGAAAUCUUUCUUCAUCAGAUGUUUGAGCUCCGUGCAAAAGUUUUGGCCUUUGAGCUUGAACGUGGAUCUAUGGGAGGGCUAUAAUAUGCAGAAAAGGUAAUUUUUUUUUUAAAGACAACAGAGGAUUGAGCAUCA
B19: chr2:232320318:232320319:-_ENSG00000115053_ENST00000322723|hu_hu|hu_hu_hu_mus_True|78_78 (ssRNA)
RNA: GGGAGUUCUACAGUCCGACGAUCACUAUUAAAGUCUACAAAACCAAACCCUUUGGAGGACCCAGUUUCCCGAUCAGUGACUAUUCUUGCACGAACAGAGCCCUCAAAUGAUUCUUUUAAGGUCUCUUCAGUGGUAUCCUCAGACAACAGAGGAUUGAGCAUCA
B20: chr8:117878989:117878990:-_ENSG00000164754_ENST00000297338|hu_hu|hu_hu_hu_mus_True|18_18 (ssRNA)
RNA: GGGAGUUCUACAGUCCGACGAUCCCAGAGGCCCUCGUUUACUGAGGACAAAAUGUGCGUAGAACAUUUUUCUUAUUUGCUAUGAAAUAAGAAGAAACCUGGAUCUCGGCGGGGAGCUUGGGCGGGCGGGUGGCCCGGGGAGGGCAACAGAGGAUUGAGCAUCA
B21: chr18:58105177:58105178:+_ENSMUSG00000024597_ENSMUST00000115366|mus_mus|FALSE|FALSE (ssRNA)
RNA: GGGAGUUCUACAGUCCGACGAUCUAACGUCUUGCUUGACCUGACUUGACUGUUUACUUAAAAAAAGAAAAAGAAAAAACUAAAACAACAACAAAAAAAUAUCUGUAAUCUACCAAAUCGUGAUCACUUUAAAAUCUGAAACACCAACAGAGGAUUGAGCAUCA
B22: chr14:22137345:22137346:+_ENSMUSG00000039197_ENSMUST00000045376|mus_mus|FALSE|FALSE (ssRNA)
RNA: GGGAGUUCUACAGUCCGACGAUCAAAGAGGAUAUCAACAUAAGGCAUGACGUCCAUCAAGGCUUCCUUGAAGAACUGGCUAAUGAACGGUGCAGACAGGUUCAAAGUGAAGACCCUGUUGUUCUCGGCAGCAUAGCGAGCCACCAACAGAGGAUUGAGCAUCA

The test concerns the target T1, UNK ZnF1-3 (human, UniProt Q9C0B0 31-174).
T1 sequence: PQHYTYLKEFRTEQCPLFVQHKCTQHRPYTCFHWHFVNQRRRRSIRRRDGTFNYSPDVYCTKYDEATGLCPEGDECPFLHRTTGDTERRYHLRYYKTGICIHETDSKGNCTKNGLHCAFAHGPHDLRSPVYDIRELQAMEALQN
Briefly: nsRBNS (natural sequence RNA bind-n-seq); RBNS binding buffer (assumed for nsRBNS): 25 mM Tris pH 7.5, 150 mM KCl, 3 mM MgCl2, 0.01% Triton X-100, 500 ug/ml BSA, 20 U/ml SUPERase-In, 4 C; UNK is unkempt and MSI1 is Musashi-1; names of the RNAs are library labels; protein concentration not given here; high values mean tight binding.
Turning to B1, the binding signal turned out to be 1 enrichment R.
The value for B2 was 0.302 enrichment R; that for B3 was 1.21 enrichment R.
With B4, the binding signal is 1.03 enrichment R.
As for B5, the figure is 1.16 enrichment R; as for B6, 0.938 enrichment R.
With B7, the binding signal worked out at 1.08 enrichment R.
In turn, B8 had a binding signal of 1.75 enrichment R.
As for B9, the figure is 0.861 enrichment R.
The value for B10 was 0.752 enrichment R; that for B11 was 0.774 enrichment R; that for B12 was 2.04 enrichment R.
As for B13, the figure is 1.24 enrichment R; as for B14, 0.92 enrichment R.
Take B15: the binding signal was 0.883 enrichment R.
In turn, B16 came in with a binding signal of 1.3 enrichment R.
The value for B17 was 0.928 enrichment R.
With B18, the binding signal is 2.4 enrichment R.
Turning to B19, the binding signal came out at 0.422 enrichment R.
On to B20, for which the binding signal is 1.26 enrichment R.
The value for B21 was 3.19 enrichment R.
As for B22, the figure is 0.96 enrichment R.
